The values that follow come from the supplement of paper PMC11417369.

± gives the standard deviation of the averaged measurements. Some of the results follow.

The subject of this assay is PfAP2-EXP AP2 domain (GST-tagged). Nature of the assay: gcPBM binding intensity (ln(normalized median fluorescence intensity)); higher = stronger DNA binding. A digest of the protocol:
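An Agilent 4 × 180k array of primer-extended double-stranded 36-bp intergenic genomic probes, with negative controls, was incubated for 1 h with GST-tagged P. falciparum DNA-binding domains expressed in E. coli. Alexa488 anti-GST antibody detected bound protein, scanned at 488 nm. Binding intensity is the highest Masliner-normalised natural-log median intensity across replicate spots of either probe orientation.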
Consider “AAAGTAACACACTAATATTTTAACAAATAATATATA [GTGCAC_negctrl_site132]”, for which the “gcPBM binding intensity (ln)” value was determined as 8.26 ± 0.43.
Turning to “ATATATATTAATATTTGTACATAAAATTATTTCAAT [XGTACX_site5364]”, the “gcPBM binding intensity (ln)” value turned out to be 8.49 ± 0.29.
Consider “AGTGTAATTTTCCACTGTACTTTTCTTGTATATAAT [XGTACX_site4201]”, for which the “gcPBM binding intensity (ln)” value stood at 8.68 ± 0.35.
With “ATACAAAAAATCACATGTACATATTCTTAAATGGTA [XGTACX_site8502]”, the “gcPBM binding intensity (ln)” value came to 8.47 ± 0.35.
On to “AATAATAATTTGAATACACACAATAATATATATATA [CACACA_site2059]”, for which the “gcPBM binding intensity (ln)” value came out at 9.62 ± 0.5.
Consider “TACCTTTCTTATTATTGAAAAGGAATATATAAATAG [CACACA_negctrl_site272]”, for which the “gcPBM binding intensity (ln)” value turned out to be 8.32 ± 0.37.
Take “TTATATCATTTTCCTGCACACATAAATTTATATAAT [CACACA_site8257]”: the “gcPBM binding intensity (ln)” value worked out at 8.9 ± 0.38.
With “ACAAAATATACAAAATGTACAAAATATACAAAATGT [XGTACX_site6467]” the figure was 8.51 ± 0.16.
For the sequence “TTATTCTAAAAGTGTTTGCACTTTTATAATCATATA [GTGCAC_site9929]”, the “gcPBM binding intensity (ln)” value was 8.13 ± 0.13.
On to “TATACAGATAAATACACACACACATATATATATATA [CACACA_site4845]”, for which the “gcPBM binding intensity (ln)” value was 10.1 ± 0.14.
Consider “CATATGTATTTATTCACACATATATATATATATATA [CACACA_site4207]”, for which the “gcPBM binding intensity (ln)” value was 10.2 ± 0.4.
As for “TATATAAAATAATAATGTACTCATTAAAATTATAGA [XGTACX_site4507]”, the “gcPBM binding intensity (ln)” value was 8.14 ± 0.34.
On to ATGTATCCAATAGGAGTGCATAATTCTATTAACACC, for which the “gcPBM binding intensity (ln)” value turned out to be 8.39 ± 0.3.
For “AAAGAAAAAAAAAAAAAAAAAAAAAAAATTATACAT [CACACA_negctrl_site7]”, the “gcPBM binding intensity (ln)” value came to 8.09 ± 0.56.
For “ATATATATATATATATGTACATATATTCGATTATTA [XGTACX_site557]”, the “gcPBM binding intensity (ln)” value is 10.29 ± 0.049.
Consider “ATAATATTTCTTACCTTTGGATGTTCTAATTTTTTT [CACACA_negctrl_site1317]”, for which the “gcPBM binding intensity (ln)” value worked out at 8.85 ± 0.5.
Regarding “TACATATTGCACAAATAAAAAAGAACAAAAAAAAAA [CACACA_negctrl_site1200]”, the “gcPBM binding intensity (ln)” value came out at 8.62 ± 0.38.
Turning to “GAATTTCGATATATGTGTACGCATTTGTATTATAGG [XGTACX_site6332]”, the “gcPBM binding intensity (ln)” value worked out at 8.88 ± 0.52.
On to “TACTTTATATTATATATATATATATATATATATATA [CACACA_negctrl_site1765]”, for which the “gcPBM binding intensity (ln)” value came out at 10.1 ± 0.29.
“AAAAATAACATATAAACACACATATATATATATATA [CACACA_site3802]”: the “gcPBM binding intensity (ln)” value was found to be 10.1 ± 0.49.
The figure for “TACATAAAATATATCACACATATAATATATATATAT [CACACA_site5834]” is 9.54 ± 0.16.
With “AAAAAAAAAAAAAAATATAAATATATATATATATAT [GTGCAC_negctrl_site28]” the figure was 10 ± 0.28; with “TATGTATTAAATTTTACACACATGATTCTCTATATA [CACACA_site2298]”, 8.55 ± 0.4; with “AAACGAACATATAAATGTACATATATATACATATAT [XGTACX_site8086]”, 8.46 ± 0.5.
As to “AATTAAATATTATAAACACACATATATATTATTTTT [CACACA_site865]”, the “gcPBM binding intensity (ln)” value came out at 8.15 ± 0.4.
In the case of “TACAAAAAAAATGTATTTAGGACATATATATGTTTA [XGTACX_negctrl_site455]”, the “gcPBM binding intensity (ln)” value stood at 8.1 ± 0.38.
The figure for ATTGTAAATATAGAAGTGCAAAAGGGTATGAAATGA is 9.31 ± 0.36.
Turning to “AGCTATATAAATAATACATGCATTGTTCAGGTATTT [TGCATGCA_site964]”, the “gcPBM binding intensity (ln)” value is 8.76 ± 0.28.
For the sequence ATTTATAATATTCAAGTGCATATATATTTTTTACTT, the “gcPBM binding intensity (ln)” value was found to be 8.77 ± 0.25.
For “TAGTTCCTCAAAAATTTCCTTTGTCATTTTATTCAC [GTGCAC_negctrl_site20]”, the “gcPBM binding intensity (ln)” value stood at 8.55 ± 0.57.
On to “TACATAAATTAATAGTCACACACGTATTTTTTATAT [CACACA_site8806]”, for which the “gcPBM binding intensity (ln)” value turned out to be 8.36 ± 0.3.
For the sequence “GTTATACAAAATAATACATGCATGTCCTACATATAT [TGCATGCA_site320]”, the “gcPBM binding intensity (ln)” value was 9.37 ± 0.38.
The figure for “TAAAGAAATTCTTCATGTACTTATTATTTCTCTTTT [XGTACX_site6817]” is 8.64 ± 0.6.
Regarding “TATGGAATAAATTTATCCATACATCTTATAACATAT [XGTACX_negctrl_site500]”, the “gcPBM binding intensity (ln)” value came out at 8.38 ± 0.45.
For “AGAAAGATGCAAGAAACATGCAAAAAAAAAATTTCT [TGCATGCA_site725]”, the “gcPBM binding intensity (ln)” value is 8.6 ± 0.51.
In the case of “TGTATTCCTTTTTATAGTACAATTTAAAAGTATAAA [XGTACX_site2045]”, the “gcPBM binding intensity (ln)” value was found to be 8.46 ± 0.3.
With “GTACGTTTCTCCAGACTGCACTATACGACTCGTACA [GTGCAC_site9771]” the figure was 9.15 ± 0.28; with “CACAAATATACAAATACACACAAATATACTCATATA [CACACA_site5339]”, 8.51 ± 0.41.
Consider “ACATAATATATATATTGTACAAATATATTATTGTTA [XGTACX_site3385]”, for which the “gcPBM binding intensity (ln)” value stood at 8.3 ± 0.3.
The figure for “AAAAAATTATATAATAATAGAACTATACATTTTATT [GTGCAC_negctrl_site645]” is 8.04 ± 0.38.
The figure for “AGCCACGGGTTATATACACACATAATCAAATAAAAT [CACACA_site6117]” is 8.64 ± 0.54; for ATTTTTAATGGATAAGTGCATAATATTATGATGCAA it is 8.755 ± 0.021.
Consider “TATGTAATAAAATATACACACAATATACTTATATAT [CACACA_site3682]”, for which the “gcPBM binding intensity (ln)” value was 8.27 ± 0.35.
Take “ATTTAAAATAGAAGTTATATTTATATGGGTGAAAAA [GTGCAC_negctrl_site296]”: the “gcPBM binding intensity (ln)” value was 8.41 ± 0.36.
